# Whole data set: some 33,000 sequences, median “E-score (-0.5 to 0.5)” near -0.056, cut for the highest 2% near 0.38. The list shows a part of the results.
# Biological target: Stb4 (UniProt P50104)
# Test: PBM E-score (8-mer binding enrichment) (E-score (-0.5 to 0.5)); higher = stronger / more preferred TF binding; most listed sequences are background and not binding sites
# Details: protein concentration: 200 nM; construct: GST-DNA-binding domain
# Protocol: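 Universal 'all 10-mer' protein binding microarrays (Agilent AMADID 015681) probed with GST-tagged S. cerevisiae TFs (full-length or DBD) made by in vitro transcription/translation (PURExpress), about 100-200 nM. Bound TF was detected with fluorescent anti-GST. Each ungapped 8-mer (which stands for itself and its reverse complement) is scored by the PBM enrichment score (E-score), a modified Wilcoxon-Mann-Whitney statistic from -0.5 to +0.5, computed with the Universal PBM Analysis Suite. Scale: above 0.35 generally sequence-specific binding.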
row,Sequence,PBM E-score
1,CAGCGGCG,0.1
2,CCTATCAA,-0.179
3,CGCAGGAA,-0.0189
4,TACTTAAA,-0.113
5,AACGCTGA,-0.187
6,TGTAAAAA,-0.0748
7,CAGGATGA,-0.184
8,AGTGCACG,-0.115
9,CGCCGCAA,0.0648
10,CGATTGCC,0.0231
11,ACTTGACT,-0.189
12,CGCTCCTA,-0.198
13,ATCGCGTC,-0.00416
14,AGGTTTTA,0.0162
15,CAATATGC,0.0107
16,CCTAGAAA,-0.0513
17,AGCAAAAG,-0.278
18,AAGTGTAT,-0.175
19,CTCGATAC,-0.0942
20,TATCTCCA,-0.105
21,CTATACAC,-0.123
22,CCTGCCAA,0.0231
23,AGAGGACG,-0.044
24,CTACTTGC,0.104
25,ATGCGTTC,0.275

row,Sequence,PBM E-score
1,AACTAGCT,-0.0434
2,GAACGGCC,0.166
3,ATCGGAGA,0.272
4,AGTGCTAG,-0.155
5,ACCCCGAA,0.369
6,AAGTCCTA,0.0417
7,AAACAGGG,-0.232
8,AAAGACGC,-0.136
9,ACGCTTGC,-0.158
10,ACGATACA,-0.21
11,AATCTGTC,0.071
12,GTGAACAA,0.00625
13,ACTACCCC,-0.0517
14,ACACGCAT,-0.172
15,CACCAAAC,-0.0932
16,ATTACTTG,-0.181
17,ATGCGCTG,-0.219
18,GAGGAACA,-0.0308
19,CCCCCCAA,-0.146
20,CCCGTGGA,0.225
21,CTGTGACC,-0.0795
22,GCGCCTAC,-0.0577
23,CCGCCGTA,0.225
24,GGGTGGGA,0.179
25,AGAAGGCG,-0.344

row,Sequence,PBM E-score
1,CTGGATCC,0.194
2,GAACTCTC,0.0244
3,AATACGGT,-0.00013
4,GATCCTTA,-0.0996
5,AAATTCGT,0.117
6,AACTCTAT,0.0804
7,TCCCTGAA,-0.161
8,CTAGTCTA,-0.315
9,AATCTTTA,0.0922
10,CCCGGTAA,0.3
11,ACTACTAA,0.0213
12,ACCAGTTG,-0.0457
13,AACCAGGA,-0.0237
14,TAGCAAAA,0.093
15,CCTAGACC,-0.261
16,CTACCATA,-0.154
17,GTGACCAC,0.128
18,AAAAGCTC,0.0724
19,CGTGTAAA,0.0295
20,CGCCACGC,-0.108
21,CCTTGGTC,-0.175
22,CTATAGAG,-0.191
23,AAACTTGG,-0.0999
24,ATAGCCTC,-0.00394
25,TGTCAACA,-0.0386

row,Sequence,PBM E-score
1,GCCGGATA,0.409
2,GGGTTTCA,0.0781
3,GGTCCCGA,0.39
4,CGCGCTAC,0.0503
5,CAGACAAC,0.0226
6,ATGTAACC,0.0982
7,CCTACTGA,-0.114
8,ACACGGAG,0.115
9,CTCTTTCC,0.123
10,ACTCGGTG,0.124
11,AACGTCCC,-0.00997
12,TAAGCCCA,-0.0698
13,GAAGTACA,-0.013
14,AAAGGAGC,-0.105
15,CACGCTAC,-0.156
16,CGATCGCC,0.0955
17,CCAGCTAC,-0.152
18,GAACCTCA,-0.0198
19,ACTGGTGG,-0.238
20,GGGTCGGA,0.392
21,CTATTACA,-0.15
22,AAGGGTCC,0.0575
23,GTGGACAA,-0.105
24,CGAGTGTC,0.0672
25,AGCGCCTA,-0.122

row,Sequence,PBM E-score
1,CAGCTTTA,-0.0389
2,CGGGTGTC,0.298
3,ACTAGCCA,-0.0771
4,AAGACTCC,-0.0274
5,CAAGTGGC,-0.273
6,TCTCAAAA,-0.0897
7,GCCAAGAA,-0.147
8,CGCGCTTC,0.0362
9,CGGCTCCC,0.241
10,CACCTGAC,-0.194
11,ATAAGCTG,-0.144
12,ATTCGGGG,0.34
13,ATCGCGCC,0.00024
14,GGAGTAAA,-0.012
15,AACAGCTT,-0.189
16,GGTTAGGA,-0.135
17,CGGAGCGA,0.28
18,AACCATAT,-0.127
19,GCACCGTA,0.0199
20,AACTACAA,0.168
21,AGTTCCGG,0.419
22,GCCTTACC,-0.134
23,AATGATGT,-0.117
24,TGAGTCCA,-0.11
25,GAAGCCTC,-0.118

row,Sequence,PBM E-score
1,GGTGCGGA,0.201
2,TAGACATA,0.0472
3,AGACTCAT,-0.141
4,ACTCAGAG,-0.105
5,ATTCGGAA,0.456
6,ACGAACCT,-0.207
7,CGCACAAA,-0.0812
8,ATCCAGCG,0.0613
9,AGGGTACT,-0.262
10,CTAGTATA,-0.0301
11,CGAGCTAC,0.0965
12,AGGTTGCG,-0.269
13,TACGGTCA,0.0631
14,ACCGTTGC,-0.0941
15,TCGCGGCA,0.111
16,CACGACTG,-0.0867
17,CCTACGGC,0.0539
18,ATGCGATC,0.0425
19,GATCATAA,0.139
20,AAACATAC,-0.0963
21,AGTCCTAC,0.0892
22,CATTAATC,0.0334
23,GGAGGTCA,-0.0321
24,AGGACCAT,-0.172
25,GCGAACCA,-0.0506

row,Sequence,PBM E-score
1,CCACGCAG,-0.12
2,ATGAAAGG,-0.0295
3,AAAGATGC,-0.143
4,ATACCGAT,0.285
5,TAAGAAGA,0.0882
6,AATTATAA,0.0209
7,TACCTTGA,-0.133
8,CGACTCCC,0.0182
9,ACCATACT,-0.0349
10,AGTATGGG,-0.156
11,AAATAGGC,0.0259
12,ATGTCAAG,-0.117
13,CTAATAGC,-0.205
14,CCCAAATA,-0.201
15,GAAGACCC,-0.0306
16,TAAATGGA,-0.104
17,AAGTGCGC,0.0487
18,GTATAAAC,0.0179
19,GAGGCGCA,0.0247
20,CATAAGAA,-0.00014
21,GGAGCCTA,0.142
22,ATACATAG,-0.198
